Data taken from the supplement of paper PMC10126150.
Sequences with one replicate were seen in a single cluster, so their values are uncertain.

Test system: ATP
Assay: switch fluorescence ratio, 500 uM ATP over buffer (Cy3 cluster intensity, sum of 5 cycles each) (fold (ratio)); higher = stronger signal-on switching upon ATP binding; sequences stand for … in TCGTCGGCAGCGTCAGATGTGTATAAGAGACAGTTTTTTTTTTTTTTTTTTTTTTTTT…TC
Details: aptamer strand: ATP DNA aptamer (quencher-CACCTGGGGGAGTATTGCGGAGGAAGG + anchor), 100 nM annealed; ATP concentration: 500 uM; one replicate
Method in brief: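 Per cluster, summed Cy3 intensity from the target cycles was divided by that from the buffer cycles to give the fluorescence ratio, then averaged per switch-domain sequence. Clusters outside 100-1000 RFU were excluded. The Cy3-labelled switching-strand clusters, on a modified Illumina MiSeq flow-cell, were annealed to 100 nM quencher-labelled ATP aptamer and imaged in selection buffer, then after 15 min with 500 uM ATP at 22 °C, for five cycles with NaOH stripping and re-annealing between them.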
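Also: ATP exposure 15 min at 22 °C before imaging.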

Row | Sequence | switch fluorescence ratio
1 | TGGCGGGACT | 1.02
2 | GAGTGAGGTC | 1.03
3 | GCGTAGGAAA | 0.935
4 | GTTTAGTGGC | 1.02
5 | AACTTGCGAG | 1
6 | TGTCGAGTGG | 1.02
7 | TTTTCCTTCA | 1.33
8 | TGAGGCCAAC | 0.993
9 | TGGCCCCATC | 1.16
10 | ATTCGGAATG | 0.962
11 | TGATGGTCGT | 1.06
12 | GGCACAAACA | 1.03
13 | GTCCGGAGCG | 3.12
14 | CTCAAACAG | 1.04
15 | ATTATTAGCA | 0.981
16 | AAGTACCGCA | 1.33
17 | CAGCATCAGG | 1.07
18 | GATGAACCAC | 1.09
19 | AATTGTCGG | 1.03
20 | ACGAATATTT | 1.05
21 | CACACGAGGG | 1.06
22 | CTAAAAGGAA | 0.968

Row | Sequence | switch fluorescence ratio
23 | AATAGCGGGA | 0.999
24 | CCATCATGTC | 1.09
25 | GTGAGTATAT | 1
26 | CAAGTGTCTG | 0.976
27 | TCGATAGGGT | 1.01
28 | TTTCTCAAAT | 1.06
29 | TGGCCAACGG | 1.01
30 | AAACTATCGA | 0.971
31 | GGTGTAGGGT | 1.03
32 | AGGGAAGTGG | 0.991
33 | AGAGCATGAC | 1.26
34 | AGTCTGCCCG | 1.15
35 | TAGTGTCCAT | 1.02
36 | TACCGTGTGT | 1.02
37 | TTTGCCGTTG | 1.06
38 | TTACGATGCA | 1.12
39 | CGCCTGAACC | 1.08
40 | GGCGTGTCGG | 1.04
41 | TCAGGAGGGT | 0.971
42 | TCACACTGTA | 1.2
43 | AGACACCGAC | 1.32
44 | TTCTCCTACT | 1.1

Row | Sequence | switch fluorescence ratio
45 | TTGGGTCAAA | 1
46 | GATCTAAGCC | 0.97
47 | TAACCCTCAG | 1.03
48 | ATCAGGTCTA | 0.992
49 | AGCCCAGCTG | 1.04
50 | GGCATGTTTA | 1.03
51 | AATGAGCTTG | 1.03
52 | CGACCCGTTC | 1.06
53 | CAGTCTCGAG | 0.95
54 | AAAACCCCCC | 1.15
55 | GAATAAATGA | 0.985
56 | CGTCATGGC | 0.94
57 | GAGCCATCGA | 0.961
58 | CGGAAAGTAG | 1.04
59 | GTAGTATGAT | 0.952
60 | CATGTCGCCG | 1.02
61 | CAGATACGTC | 1.01
62 | GGAGAAATGG | 0.945
63 | TCCTTCTTTG | 0.966
64 | GGTGAGGGCG | 0.982
65 | CTACTATCC | 1.76
66 | AAGCCTACTC | 1.22

Row | Sequence | switch fluorescence ratio
67 | AAACTCTGCC | 1.51
68 | CAACTTTGCG | 0.997
69 | ATCAGACGTG | 1
70 | GTTGGGTGC | 0.967
71 | GCCGACCAAA | 1.16
72 | CCCGCCGGGG | 1.99
73 | GCATAGAAAT | 0.96
74 | TGCTATTGAA | 1.02
75 | TATTGACGCT | 1.02
76 | ACCGGGGAGT | 1.01
77 | AAGGGTGTAG | 1.07
78 | ACATAAAGAG | 1.02
79 | ACGCTAAGAC | 2
80 | GGTAGAGAGC | 1.02
81 | AGAATGCCTT | 0.968
82 | CAGGGACCTC | 1.04
83 | TTGCGA | 1.01
84 | AGAATAAGGT | 1.02
85 | TCAGTGATGG | 1
